# According to paper PMC10668032:
# Some of the results follow. At the low end of the ranking the order means little.
# Biological target: SIX1-Q177R homeodomain (UniProt Q15475)
# Test: universal protein binding microarray
# Conditions: Universal all-10-mer PBM (8x60K, AMADID 030236), 300 nM GST-tagged protein, Alexa Fluor 488 anti-GST; buffer, salt, pH and temperature not stated; high values mean tight binding; most listed sequences are background and not binding sites; double strand, one strand shown
row,Sequence,binding signal [E-score]
1,ACAGGAGT,0.196
2,AACCGCAA,-0.068
3,ATCTCGCG,-0.179
4,AGACCCCA,0.175
5,GGAGACAC,0.397
6,GCCGACTA,0.076
7,CTGCAAAA,-0.0735
8,AGATCTCC,-0.243
9,GCAGGCAA,-0.123
10,AGTCTACG,-0.145
11,AAGCGAAT,-0.228
12,CTCACCAC,0.0101
13,CGGGCCTC,-0.229
14,GATTAGCC,-0.0371
15,GCTTCACA,0.0313
16,GAGCAATA,-0.0893
17,ATCCTTGA,-0.0664
18,GGGGTCAC,0.29
19,TCGAGACA,0.0319
20,CATAACAC,0.426
21,CCTCGTGA,-0.131
22,ATTCAATC,-0.0721
23,ACGGCTGG,-0.0745
24,TTAAAGAA,-0.199
25,TATATCAA,0.0193

row,Sequence,binding signal [E-score]
1,CTGCGAGC,-0.155
2,ATCGGTGA,0.0724
3,AAGCCTTA,-0.237
4,ACACCAGC,0.464
5,ACTAGAGC,0.0472
6,CACACGGA,0.253
7,CACCTACC,0.267
8,CGTAGTAA,-0.111
9,CGTATGAC,0.199
10,ACTTTCCG,-0.218
11,AATGCCCC,-0.0463
12,GAACAGAA,-0.193
13,CTCTCTTA,-0.156
14,ATCGGCGG,0.0227
15,TGGCAAAA,-0.247
16,ATTATGTA,-0.178
17,ATTGAGCC,-0.148
18,ACCTGGGC,0.0617
19,CCAGCACG,-0.0225
20,CCAAGGGC,-0.291
21,ATATCGAA,-0.144
22,GATTACGC,0.0363
23,ACGTCGTA,0.0312
24,CGCCATCC,0.0437
25,CGTCGCGA,-0.267

row,Sequence,binding signal [E-score]
1,CCGTGATC,0.165
2,CGAACGGC,-0.235
3,ACTCGGCC,0.07
4,GGTCGTAA,0.0564
5,GCCGAGCC,-0.146
6,CGGACCAA,-0.075
7,GAGTACAC,0.436
8,GGCCGCAA,-0.102
9,CACGGCGG,0.129
10,ACTCGCAT,0.0974
11,CGCTACTA,-0.0358
12,AACTCCCC,0.12
13,ATAAACGG,-0.0183
14,GTCTCGGA,0.0128
15,AAACAATA,-0.176
16,ACCACCGC,0.199
17,TGAGACCA,-0.159
18,AGGCAAAG,-0.205
19,GGAGTATA,0.136
20,CCTGGAAG,-0.0497
21,AATATCGG,-0.207
22,AATAACAT,-0.0761
23,CGCGCTGA,-0.0914
24,CTTTAATC,-0.143
25,GCAAACGA,-0.22

row,Sequence,binding signal [E-score]
1,TATTCACA,0.208
2,ATCCATGG,0.0298
3,CATTAAGG,-0.0903
4,CTGTAATA,-0.142
5,ACGACAGA,0.0702
6,ACTTGCGG,0.032
7,CTCGTCCC,-0.112
8,CGATTCCA,-0.0597
9,CCCTTTTA,-0.0363
10,CAACTATA,-0.18
11,ATGGTCCA,-0.0757
12,CGCCACTA,0.0373
13,GCGTACTA,-0.058
14,GTGGAGGA,-0.0175
15,AAGGGACT,-0.182
16,CAAAGCGC,-0.0271
17,TATGGCAA,-0.239
18,TGTCTAAA,0.199
19,ATGATCTC,-0.232
20,AAATTAGC,-0.0307
21,GACGTGGA,-0.208
22,AATGCGCA,-0.0854
23,GACGCGAA,0.0278
24,ACCTCATC,0.0254
25,CGCTACCC,0.119

row,Sequence,binding signal [E-score]
1,GATATGGC,-0.0634
2,AGGACTAA,-0.195
3,ATTCTATG,-0.055
4,CCTCCCCG,0.0262
5,ACTCTAGA,-0.109
6,GGGTAAGA,0.135
7,GCGGATCA,0.119
8,ATAGTAAA,0.0805
9,AACCCCTT,0.147
10,ATTCCGAC,0.0927
11,CCGATGGC,-0.0797
12,ACTTCCCG,-0.0907
13,CCCTAGTC,0.167
14,CACTCTAG,0.174
15,ACCAGTCT,0.087
16,GAGGGGTA,0.277
17,ACGTAGGC,-0.273
18,CGTTACAA,-0.172
19,AATCTGAG,-0.0658
20,AGAGCAAT,-0.0855
21,GGTATCCA,0.369
22,CAAGAACG,-0.0355
23,ACCAATTG,-0.0697
24,AAGCACAG,-0.00471
25,ACGGGCGG,0.159

row,Sequence,binding signal [E-score]
1,TACTGGGA,0.031
2,AAAACGGT,-0.039
3,CCCACAAG,0.0657
4,CTACTTAC,-0.0716
5,ACGGTTTA,0.158
6,ATATCTGG,-0.0415
7,ATCTAAAG,0.0222
8,AGATGCCG,-0.00312
9,AGCCTAAC,-0.153
10,ATAAAGGA,-0.0843
11,GCTAGTCA,-0.258
12,AAAGGCTC,-0.266
13,GAGCGTCC,-0.141
14,CGCAAGCC,-0.133
15,AAGTCGGG,-0.0381
16,AAATTCTC,-0.138
17,AATTTAGC,-0.219
18,AGACATCG,-0.303
19,CTTGTGAA,-0.0929
20,GGGATACA,0.234
21,AAGACCAA,-0.163
22,AAAAGTAG,-0.0589
23,GTTGTCTA,0.081
24,CCTTGATC,0.147
25,AGCCCGAC,0.00669

row,Sequence,binding signal [E-score]
1,AGGTCCAG,-0.187
2,ACTTAAGA,-0.0316
3,GAGGAACC,-0.00613
4,CTTTCGAA,-0.256
5,GAAAATTC,-0.241
6,AGAGTAGG,-0.0217
7,AATATAAT,-0.096
8,CGTTGTAC,-0.122
9,ATATGCTG,-0.0689
10,CGTACGAG,-0.229
11,AAACTGCT,-0.181
12,GTCTACCA,-0.172
13,ATCCGTTG,0.118
14,CACATAAA,0.0469
15,ATGCTGTC,-0.162
16,AGACTGTC,-0.0478
17,CAAGTATC,0.089
18,GCGAGTCC,-0.0951
19,GCTGGGTA,0.227
20,CCCTCCTA,0.129
21,AGGGAGTC,0.239
22,GATGCGAC,-0.0757
23,AGTAGAGG,0.0994
24,TAAGATCA,-0.152
25,ATACCCAC,0.196

row,Sequence,binding signal [E-score]
1,CTTTGATC,-0.0842
2,CTGGCTAA,-0.202
3,AGGAATCA,-0.0713
4,AACGTTAG,-0.214
5,AACCGTTC,-0.146
6,CGGATATA,0.126
7,ATCCACTC,0.203
8,AACCTCGT,-0.0806
9,CATCATTA,-0.0403
10,GGTTTCTA,-0.03
11,AGACCCAA,-0.16
12,CGTGCTCA,0.256
13,CTCTTTTA,-0.0754
14,CTGATCCC,0.232
15,ATGGGTTG,-0.163
16,TACGGGGA,-0.072
17,CCTCTCCA,-0.0711
18,CAAATTTA,-0.132
19,CGTGCCTA,-0.17
20,CCCCGCCG,0.241
21,ACACAAGA,0.13
22,GAAGACGC,-0.0235
23,TACCTGAA,-0.115
24,ACAAACCG,0.0722
25,AGTAGAAA,-0.0595

row,Sequence,binding signal [E-score]
1,CTTGAAAA,-0.231
2,GTCCAAAC,-0.118
3,AGTACTGG,-0.0788
4,ACCTGAGA,0.0277
5,GTAGAACA,0.125
6,ACTTTCTA,-0.081
7,AGGGCTCC,-0.282
8,AAACCAAT,-0.0171
9,AACTCTCT,-0.0926
10,AGAGCGTC,-0.211
11,ATCTCCAG,-0.166
12,AGGTAAGC,-0.133
13,ACGTTTCC,-0.229
14,GCTAAGTA,-0.0323
15,ACGTGACC,-0.0527
16,AAGTCAAC,-0.0959
17,CGTACCCC,0.24
18,GATGATTA,-0.167
19,AGTATGTC,-0.0906
20,ACCAGTAT,0.0234
21,ACTGACCA,0.00421
22,CGGGACAA,-0.165
23,ATATCGGG,0.0231
24,CTCGTGTC,0.409
25,CGAGAAAC,-0.0012

row,Sequence,binding signal [E-score]
1,CGCTCCAG,0.0256
2,ACCGCAGA,0.0559
3,CATTGCAG,0.127
4,GGTACATA,-0.0138
5,AGAGCAAA,-0.375
6,CAAGTACG,-0.254
7,AATGGAGG,-0.111
8,CATAAATC,-0.107
9,TGGTTAAA,-0.0396
10,AATGCTCT,-0.157
11,ATTTTTTA,-0.183
12,CGGAACTA,-0.0884
13,AGTTTGGC,-0.196
14,TCCAGTAA,-0.253
15,GCGTTCCA,-0.103
16,AGATCGAT,-0.143
17,CGAAACTC,-0.184
18,AACACTAA,0.336
19,GAGGTGCA,0.192
20,ACATCGTC,-0.25
21,ACTCAGTA,-0.0833
22,CACTTGCA,0.173
23,AAAAGCTT,-0.202
24,ACTAGTAT,0.0857
25,GACTCTCC,0.0103

row,Sequence,binding signal [E-score]
1,GAAATTGA,-0.103
2,ACCACTAA,0.053
3,ATGGCACC,0.149
4,CATTCGGG,0.113
5,ACATCTCG,-0.0651
6,CGGTATTA,-0.0208
7,CCAACAAA,-0.0639
8,AGAAAGTG,0.0949
9,AGCTGTAG,-0.16
10,CACCAGAA,0.313
11,CGCGAACG,0.0267
12,CAGACACG,0.353
13,AGCTTGTA,-0.0252
14,CTGATAGC,-0.185
15,AGCCCGAA,-0.271
16,ACAGTTTC,-0.0664
17,ATAATTTA,-0.145
18,ACCTTTAC,0.0796
19,ATGTCAAG,-0.184
20,ACGCCCTG,0.085
21,AATTCACT,-0.0752
22,CCACTGAC,-0.138
23,AGCTACAG,-0.28
24,GCATGTCC,-0.251
25,ATCTTTCC,-0.146

row,Sequence,binding signal [E-score]
1,CTGTAAAA,-0.079
2,CTACGTGC,-0.0719
3,ACCGCGGC,-0.0602
4,CTAAATTC,-0.164
5,AGCTGAGG,0.00879
6,CCCTTTCC,-0.0811
7,CCTTTGTC,0.0161
8,GTGAAGCA,-0.076
9,GTCAACAC,0.38
10,AGGTACCA,-0.158
11,ACTAGTGG,0.0778
12,CCAGATCC,-0.0193
13,AACGCAAC,0.0521
14,GAGCCTAA,-0.000895
15,CGCGGGGA,0.0642
16,AGCGCGAC,-0.114
17,CTGCAGAC,0.059
18,CAGAAAGG,-0.0861
19,CTTGAAGC,-0.2
20,TACCGAGA,0.0171
21,CTCGTAGC,0.015
22,AGCTGGAT,-0.057
23,AATCTTAG,-0.119
24,AAATCCTA,0.053
25,CGTCCCTA,-0.00657

row,Sequence,binding signal [E-score]
1,CTACATTA,-0.0855
2,ATCTACCG,-0.0682
3,CTGCTCGC,-0.128
4,GCCACTCC,-0.029
5,CTACAAAA,-0.053
6,CGCACGTA,-0.0194
7,GACCCAGA,-0.0236
8,CCCGAGGG,0.0544
9,AATATCCT,-0.0269
10,ACGAATGA,0.0724
11,ATCAGCGA,-0.224
12,CAGCTACG,-0.00279
13,AGTCCTGG,-0.213
14,CCTTATAG,0.109
15,GAGGTCGA,-0.0708
16,CACCACTC,0.322
17,GGGGGCAC,-0.00685
18,ATGGAGTA,0.239
19,CCAACGCC,0.181
20,CATCAAAA,-0.204
21,CCCATACC,0.0741
22,CGAATATC,-0.0113
23,ACCCCCAA,0.312
24,AGGATATG,-0.0806
25,AAGAGACA,0.0387

row,Sequence,binding signal [E-score]
1,AACCACAG,-0.0966
2,ACAAGAAT,-0.26
3,CCTTCGCG,-0.0565
4,AGCAAGCC,-0.262
5,ATTTCTCC,-0.316
6,CGGTCCGC,-0.152
7,CAAAGCGA,-0.0491
8,ATGCTTGA,-0.204
9,ACGTGAAA,0.00026
10,CGACCTAG,-0.0247
11,GAACTACC,-0.241
12,GTGAATTA,-0.146
13,ACAATAAA,-0.111
14,ATGACAAC,0.0141
15,CCTCACAG,-0.00639
16,AGATTCGA,-0.0889
17,CGAGGCTC,-0.0118
18,ATGGTCGG,0.0694
19,ATGCCGCA,-0.0732
